The RNAGym collection of RNA variant scans (doi:10.1093/nar/gkz1192)
Read counts are not given, so values of variants with three or more changes are uncertain.

B1: CPEB3 Ribozyme (parent)
chain: UAACAGGGGGCCACAGCAGAAGCGUUCACGUCGCAGCCCCUGUCAGAUUCUGGUGAAUCUGCGAAUUCUGCUGUAUAUCUC

Variants of: B1
Test: self-cleavage, relative activity (ratio to wild type); higher = more cleavage; in vitro, sequencing
Procedure, shortened: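 CPEB3 self-cleaving ribozyme mutant libraries were made by rounds of error-prone PCR, barcoded, and transcribed in vitro with T7 RNA polymerase for 5 hours at 37°C. Cleavage occurred during transcription and a 15 min DNase I step before EDTA stop. RNAs were reverse transcribed with template switching and Illumina-sequenced, with DNA sequencing mapping barcodes to variants. Relative activity is the variant's cleaved/total read fraction divided by wild type's (minimum 5 reads), averaged across three batches.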

Row | Variant | self-cleavage
1 | UAACAGGGGGCCACAGCAGAAGCGUUCACGUCGCAGCCCCUGUCAGAUUCUGGUGGAUAUGCGAACUCUGCUGUAAAUCUC [A56G C59A U66C U76A] | 0.09
2 | UAACAGGGGGCCACAGCAGAAGCGUUCACGUCGCAGCCCCUGUCAGAUUCUGGCGAAUCUGCGAAUUCUGCGGUAUACCUC [U54C U72G U78C] | 1.17
3 | UAACAGGGGGCCACAGCAGAAGCGUUCACGUCGCAGCCCCUGUCAGAUUCUGGUGGAUCUGCGAAUUCCGCUGUAUAUCUA [A56G U69C C81A] | 0.94
4 | UAACAGGGGGCCACAGCAGAAGCGUUCACGUCGCAGCCCCUGUCAGAUUCUGGGGGAUCUGCGAAUUCUGCCGUAUAUCAC [U54G A56G U72C U80A] | 0.75
5 | UAACAGGGGGCCACAGCAGAAGCGUUCACGUCGCAGCCCCUGUCAGAUUCUGGUGUAUCUGCAAGUUCUGCUGUAUAUCUC [A56U G63A A65G] | 0.36
6 | UAACAGGGGGCCACAGCAGAAGCGUUCACGUCGCAGCCCCUGUCAGAUUCUGGUUAAUCUGCGAAUUCAGCUGUACAUCUC [G55U U69A U76C] | 0.77
7 | UAACAGGGGGCCACAGCAGAAGCGUUCACGUCGCAGCCCCUGUCAGAUUCUGGUUAAUCUGCGAAUUCUGCUGUGUAUAUC [G55U A75G C79A] | 0.83
8 | UAACAGGGGGCCACAGCAGAAGCGUUCACGUCGCAGCCCCUGUCAGAUUCUGGUGUAUCUCCGAAUACUGCUGUAUAUCUC [A56U G61C U67A] | 0.44
9 | UAACAGGGGGCCACAGCAGAAGCGUUCACGUCGCAGCCCCUGUCAGAUUCUGGGGAAUCUGCGAAUUCUGCUAUAUAUCCC [U54G G73A U80C] | 1.32
10 | UAACAGGGGGCCACAGCAGAAGCGUUCACGUCGCAGCCCCUGUCAGAUUCUGGUGAGUCUGCGAAUUCCACUGUAUAUCUC [A57G U69C G70A] | 0.37
11 | UAACAGGGGGCCACAGCAGAAGCGUUCACGUCGCAGCCCCUGUCAGAUUCUGGUGGAUCUGCGAAAUCUGCUGUAAACCUC [A56G U66A U76A U78C] | 0.24
12 | UAACAGGGGGCCACAGCAGAAGCGUUCACGUCGCAGCCCCUGUCAGAUUCUGGUGGAUCUGCGAAUUCUGCUGUAUACCAC [A56G U78C U80A] | 0.65
13 | UAACAGGGGGCCACAGCAGAAGCGUUCACGUCGCAGCCCCUGUCAGAUUCUGGCGAAUCUGCGAAUCCUGCUGUAUAUCCC [U54C U67C U80C] | 0.17
14 | UAACAGGGGGCCACAGCAGAAGCGUUCACGUCGCAGCCCCUGUCAGAUUCUGGUGGAUCUGCGAUUUCUGCUGUAUAUCCC [A56G A65U U80C] | 0.17
15 | UAACAGGGGGCCACAGCAGAAGCGUUCACGUCGCAGCCCCUGUCAGAUUCUGGUGGAUCUGCGAGUUCUGCCGUAUAUCUC [A56G A65G U72C] | 0.29
16 | UAACAGGGGGCCACAGCAGAAGCGUUCACGUCGCAGCCCCUGUCAGAUUCUGGUGAGCCUGCGAAUUGUGCUGUAUAUCUC [A57G U58C C68G] | 0.18
17 | UAACAGGGGGCCACAGCAGAAGCGUUCACGUCGCAGCCCCUGUCAGAUUCUGGUGGAUCUGCGGGUUCUGCUGUAUAUCUC [A56G A64G A65G] | 0.33

Row | Variant | self-cleavage
18 | UAACAGGGGGCCACAGCAGAAGCGUUCACGUCGCAGCCCCUGUCAGAUUCUGGGGUAUCUGCGAAUUCCGCUGUAUAUCUC [U54G A56U U69C] | 0.19
19 | UAACAGGGGGCCACAGCAGAAGCGUUCACGUCGCAGCCCCUGUCAGAUUCUGGUGUAUCUGCGAAUUCCGCUGUUUAUCUC [A56U U69C A75U] | 0.48
20 | UAACAGGGGGCCACAGCAGAAGCGUUCACGUCGCAGCCCCUGUCAGAUUCUGGCGAAUCCGCGAGUUCUGCUGUAUAUCUC [U54C U60C A65G] | 0.1
21 | UAACAGGGGGCCACAGCAGAAGCGUUCACGUCGCAGCCCCUGUCAGAUUCUGGUGGAUCUGCGAAUUCUGCAGUACAUCUC [A56G U72A U76C] | 0.38
22 | UAACAGGGGGCCACAGCAGAAGCGUUCACGUCGCAGCCCCUGUCAGAUUCUGGGGAACCUGCGGAUUCUGCUGUAUAUCUC [U54G U58C A64G] | 0.16
23 | UAACAGGGGGCCACAGCAGAAGCGUUCACGUCGCAGCCCCUGUCAGAUUCUGGUGUAUCUGCGAAUUCCGCCGUACAUCUC [A56U U69C U72C U76C] | 0.31
24 | UAACAGGGGGCCACAGCAGAAGCGUUCACGUCGCAGCCCCUGUCAGAUUCUGGUGGAUCUGCGAACUCUGCCGUAUAUCUC [A56G U66C U72C] | 0.24
25 | UAACAGGGGGCCACAGCAGAAGCGUUCACGUCGCAGCCCCUGUCAGAUUCUGGUAAAUCUGCGAAUCCAGCUGUAUAUCUC [G55A U67C U69A] | 0.17
26 | UAACAGGGGGCCACAGCAGAAGCGUUCACGUCGCAGCCCCUGUCAGAUUCUGGUGAGUCUGCGAGUUCUGCUGUAUAUCCC [A57G A65G U80C] | 0.04
27 | UAACAGGGGGCCACAGCAGAAGCGUUCACGUCGCAGCCCCUGUCAGAUUCUGGUGAGUCUGCGAACUCUGCUGUAUAUCUG [A57G U66C C81G] | 0.15
28 | UAACAGGGGGCCACAGCAGAAGCGUUCACGUCGCAGCCCCUGUCAGAUUCUGGUGAGUCUGCGAAUCCUGCUGUAUAUCUU [A57G U67C C81U] | 0.15
29 | UAACAGGGGGCCACAGCAGAAGCGUUCACGUCGCAGCCCCUGUCAGAUUCUGGUGUAUCUGCGAAUCCCGCUGUAUUUCUC [A56U U67C U69C A77U] | 0.51
30 | UAACAGGGGGCCACAGCAGAAGCGUUCACGUCGCAGCCCCUGUCAGAUUCUGGUGUAUCUGCGAAUACUGCUGUAUACCUC [A56U U67A U78C] | 0.23
31 | UAACAGGGGGCCACAGCAGAAGCGUUCACGUCGCAGCCCCUGUCAGAUUCUGGUGGAUUCGCGAAUACUGCUGUAUAUCUC [A56G C59U U60C U67A] | 0.13
32 | UAACAGGGGGCCACAGCAGAAGCGUUCACGUCGCAGCCCCUGUCAGAUUCUGGUGAGUCUGCGAAUUCGGCUGUUUAUCUC [A57G U69G A75U] | 0.55
33 | UAACAGGGGGCCACAGCAGAAGCGUUCACGUCGCAGCCCCUGUCAGAUUCUGGUGAGUCCGCGAAUUCUGCUGUAAAUCUC [A57G U60C U76A] | 0.22
34 | UAACAGGGGGCCACAGCAGAAGCGUUCACGUCGCAGCCCCUGUCAGAUUCUGGUGACUCUGCGAACUCAGCUGUAUAUCUC [A57C U66C U69A] | 0.18
